Measurements: PubChem BioAssay AID596 (National Center for Advancing Translational Sciences (NCATS), 2007)
Hit rate of the full screen: of about 71,000 compounds, about 1,400 (2%) were called active. The shares of active, inactive and inconclusive entries below differ from those in the screen. Calls follow the shape of the dose curve; as a rule, active = well fitted curve in the direction sought with a large enough effect; inconclusive = small, poorly fitted or top-dose-only effect; inactive = no such curve, though single readings can be large or run the other way. Where the call is inconclusive, the potency comes from a doubtful curve fit.

target: Microtubule-associated protein tau (Homo sapiens) (UniProt P10636); assay: qHTS Assay for Tau Filament Binding; details: recombinant tau filaments, thioflavin S fluorescence, 15 h, filaments grown with octadecylsulfate alongside compound; series mostly up to 57.1 µM; activity change, negative = inhibition: at the top concentration;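 also: actives lower thioflavin S fluorescence by blocking filaments or displacing dye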
How it was run: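 His-tagged recombinant human tau (exons 2, 3, 10; 1 uM final) fibrillized with 30 uM sodium octadecylsulfate, 15 h at 37 C, in pH 7.4 HEPES buffer with 10 uM thioflavine S and 5 mM DTT. Reduced ThS fluorescence (450/510 nm) marks activity.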
% is scaled to controls: 0 for no effect and ±100 for the full control effect; potency is read from the fitted curve at half-maximal effect.

UniProt P10636, sequence (P10636 whole entry, looked up): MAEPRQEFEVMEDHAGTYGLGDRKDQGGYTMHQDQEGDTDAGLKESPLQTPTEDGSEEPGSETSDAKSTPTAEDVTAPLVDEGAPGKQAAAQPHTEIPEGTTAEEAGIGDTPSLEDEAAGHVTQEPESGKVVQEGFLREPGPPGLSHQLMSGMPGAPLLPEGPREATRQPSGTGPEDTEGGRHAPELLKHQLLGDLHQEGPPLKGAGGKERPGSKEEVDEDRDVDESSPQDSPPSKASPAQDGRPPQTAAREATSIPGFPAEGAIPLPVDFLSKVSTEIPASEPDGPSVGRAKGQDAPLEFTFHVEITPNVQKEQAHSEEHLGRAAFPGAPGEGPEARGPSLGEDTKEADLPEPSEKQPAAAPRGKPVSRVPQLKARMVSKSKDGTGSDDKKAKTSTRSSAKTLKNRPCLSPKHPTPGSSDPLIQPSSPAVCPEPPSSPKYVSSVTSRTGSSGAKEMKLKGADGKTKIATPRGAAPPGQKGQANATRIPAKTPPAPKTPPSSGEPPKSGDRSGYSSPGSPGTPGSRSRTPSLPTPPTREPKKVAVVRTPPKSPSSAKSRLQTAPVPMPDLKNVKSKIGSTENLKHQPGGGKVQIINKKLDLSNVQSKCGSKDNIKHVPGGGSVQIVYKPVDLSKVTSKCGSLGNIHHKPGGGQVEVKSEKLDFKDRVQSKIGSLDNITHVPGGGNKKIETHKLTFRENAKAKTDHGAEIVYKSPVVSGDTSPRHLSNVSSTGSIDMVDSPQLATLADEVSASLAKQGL

Activity change, negative = inhibition, inactive:
O=C(Cn1c(-c2ccccc2)noc1=O)Nc1ccc(S(=O)(=O)N2CCOCC2)cc1 11.7%, COc1cccc(-c2nc(NCc3cnc(C)cn3)c3ccccc3n2)c1 -5%, Cc1ccc(-c2noc(-c3ccccc3C(=O)N3CCCC3)n2)cc1 -4.6%, COc1ccc(CN(C(=O)CSc2nnc(-c3ccc(F)cc3)o2)c2ccc(F)cc2)cc1 2.1%, CCCC(=O)Nc1c(O)c2ccccc2[nH]c1=O 0.1%, CCN(CC)c1nc(N(CC)CC)[nH]c(=O)n1 5%, CCC(c1nnnn1Cc1ccco1)N(Cc1cc2cc(C)cc(C)c2[nH]c1=O)CC1CCCO1 (configuration not stated) 65.8%, Cc1nnc(SCC(=O)c2c(N)n(C)c(=O)n(C)c2=O)[nH]c1=O -3.4%, CC1(C)CC(=O)c2sc(NC(=O)CN3CCCCC3)nc2C1 -6.8%, COc1ccc([C@@H]2[C@H]3CN(C(C)=O)CC=C3C(C#N)=C(N)C2(C#N)C#N)c2ccccc12 15.1%, CCCn1c(SCC(N)=O)nnc1C(C)C 2.8%, O=C(Nc1ccc(N2CCN(C(=O)c3ccco3)CC2)c(Cl)c1)c1cc2ccccc2o1 407%, c1cc(CSSCc2ccncc2)ccn1 -0.4% [at 11.4 µM], Cc1ccccc1-c1cc(NCc2ccccc2)ncn1 -1.5%

Potency, inconclusive:
CCN1C(=O)c2cccc3c(NC(=O)c4ccc(S(=O)(=O)N5CCOCC5)cc4)ccc1c23 3.16 µM [decreasing], COC(=O)c1ccc(CSc2nc(C(F)(F)F)c3c(c2C#N)CCC3)o1 20 µM [decreasing], N#Cc1cc2[nH]c(=O)c(=O)[nH]c2cc1[N+](=O)[O-] 31.6 µM [decreasing], Nc1c(C(=O)c2ccc(F)cc2)oc2ccccc12 39.8 µM [decreasing], OC(CN1c2ccccc2Sc2ccccc21)Cn1nnc2ccccc21 (configuration not stated) 3.16 µM [decreasing], COC(CCN(C)C)(c1ccccc1)c1ccccc1 3.16 µM [decreasing], CC[C@@H]1OC(=O)[C@@H](C)[C@H](O[C@@H]2C[C@@](C)(OC)[C@@H](O)[C@H](C)O2)[C@H](C)[C@H](O[C@@H]2O[C@@H](C)C[C@@H](N(C)C)[C@H]2O)[C@@](C)(O)C[C@H](C)C(=O)[C@@H](C)[C@H](O)[C@@]1(C)O 39.8 µM [decreasing], Cc1ccc(NC(=O)c2cc(-c3ccco3)on2)cc1 20 µM [decreasing], COc1ccc2[nH]cc(CCNc3ncnc4ccc(-c5ccc(C(=O)N(C)C)cc5)cc34)c2c1 39.8 µM [decreasing], COc1cccc(=O)c2c(C)n(C)c(C)c12 31.6 µM [decreasing], c1ccc(-c2cccc(N3CCCC4(CCNCC4)C3)c2)cc1 25.1 µM [decreasing], S=C(S)O[C@@H]1C[C@@H]2C[C@H]1[C@@H]1CCC[C@H]21 39.8 µM [decreasing], COc1ccc(C(=O)N(CN2CCCC2=O)c2cc(C)on2)cc1OC 39.8 µM [decreasing], O=C(CCC(=O)c1ccc[nH]1)c1ccc(Cl)cc1 31.6 µM [decreasing], CCCCCCCCCCC/C=C\C(C)(C)/C=C\CCCC(=O)O 12.6 µM [decreasing], C[C@@](N)(C(=O)O)c1ccc(S(=O)(=O)O)cc1 39.8 µM [decreasing], N[C@H](Cc1ccc(Cl)cc1)C(=O)O 39.8 µM [decreasing], COC(=O)C1=C(C)N(c2cccc3ccccc23)C(=O)C1 39.8 µM [decreasing], Cc1c(C(=O)NN2CCOCC2)nn(-c2ccc(Cl)cc2Cl)c1-c1ccc(I)cc1 39.8 µM [decreasing], CC(C)Oc1ccc2c(=O)c3cc(C(=O)O)ccc3oc2c1 39.8 µM [decreasing], Oc1[nH]c2ccccc2c1C=Nc1ccc2c(c1)OCCO2 3.98 µM [decreasing]

Potency, active:
CCOC(=O)C1=C(CNCc2ccccc2Cl)NC(=O)NC1c1ccc2c(c1)OCO2 (configuration not stated) 15.8 µM, Cc1ccc(NC(=O)c2cc(-c3ccc(C)o3)nc3ccccc23)nc1 10 µM, Cc1ccc(-c2cc(-c3ccccc3Cl)c(C#N)c(N)n2)o1 12.6 µM, Cc1ccc(/C=N/c2sc3c(c2C#N)CCC3)s1 2.51 µM, CCCOC(=O)c1ccc(Oc2c(-c3ccc(O)cc3O)n[nH]c2C)cc1 20 µM, COc1ccc2[nH]cc(CCNc3ncncc3-c3ccc(N(C)C)cc3)c2c1 25.1 µM, O=C(Nc1c(F)cc(F)cc1Br)c1ccco1 15.8 µM
